Legend:
[1] = system: cabbage Alternaria sooty spot fungi (Alternaia brassicicola); test: Test Example C: cabbage Alternaria sooty spot, spray treatment of cabbage plants; type: in vivo; details: spray treatment of cabbage plants; control value=100{1-(n/3)}
Excerpt: [Test Example C] Cabbage Alternaria Sooty Spot
Test plants (cabbage variety: Shikidori) were cultivated until the cotyledons extended after the sowing of seeds.
<Control Value> Control value=100{1−(n/3)}

[2] = system: wheat brown rust fungi (Puccinia recondita); test: Test Example E: wheat brown rust, spray treatment of wheat plants; type: in vivo; details: spray treatment of wheat plants; control value=100{1-(n/3)}
[3] = system: grape downy mildew fungus (Plasmopara viticola); test: Test Example G: grape downy mildew, spray treatment of grape plants; details: 250 ppm spray, 2.5 ml/pot, grape Neomuscat; 7 to 10 days from inoculation
[4] = system: gray mold fungi (Botrytis cinerea); test: Test Example B: tomato gray mold, spray treatment of tomato plants; details: spray treatment of tomato plants; control value=100{1-(n/3)}
[5] = system: barley powdery mildew fungi (Blumeria graminis f. sp. hordei); test: Test Example D: barley powdery mildew, spray treatment of barley plants; details: spray treatment of barley plants; control value=100{1-(n/3)}

Structure (SMILES)	Test C control value class (cabbage Alternaria sooty spot) [1]	Test E control value class (wheat brown rust) [2]	Test G control value class (grape downy mildew) [3]	Test B control value class (tomato gray mold) [4]	Test D control value class (barley powdery mildew) [5]
O=c1c(Br)cn(-c2ccccc2Br)c(-c2c(F)cccc2F)c1Cl [Compound 90]	H (H shows the control value of more than 50%)	H (H shows the control value of more than 50%)	H (H shows the control value of more than 50%)	H (H shows the control value of more than 50%)	H (H shows the control value of more than 50%)
O=c1c(Br)cn(-c2ccccc2Br)c(-c2c(F)cccc2F)c1Br [Compound 91]	H (H shows the control value of more than 50%)	H (H shows the control value of more than 50%)	L (L shows the control value of 50% or less)	H (H shows the control value of more than 50%)	L (L shows the control value of 50% or less)
O=c1c(Cl)cn(-c2ccccc2Br)c(-c2c(F)cccc2F)c1Cl [Compound 92]	H (H shows the control value of more than 50%)	H (H shows the control value of more than 50%)	L (L shows the control value of 50% or less)	H (H shows the control value of more than 50%)	H (H shows the control value of more than 50%)
O=c1c(Cl)cn(-c2ccccc2Br)c(-c2c(F)cccc2F)c1Br [Compound 93]	H (H shows the control value of more than 50%)	H (H shows the control value of more than 50%)	L (L shows the control value of 50% or less)	H (H shows the control value of more than 50%)	L (L shows the control value of 50% or less)
O=c1c(Cl)cn(CCc2ccccc2)c(-c2c(F)cc(F)cc2F)c1Cl [Compound 94]	L (L shows the control value of 50% or less)	H (H shows the control value of more than 50%)	L (L shows the control value of 50% or less)	L (L shows the control value of 50% or less)	L (L shows the control value of 50% or less)
O=c1c(Cl)cn(CCc2ccccc2)c(-c2c(F)cc(F)cc2F)c1Br [Compound 95]	L (L shows the control value of 50% or less)	H (H shows the control value of more than 50%)	L (L shows the control value of 50% or less)	L (L shows the control value of 50% or less)	L (L shows the control value of 50% or less)
O=c1c(Br)cn(-c2ccc(F)cc2Cl)c(-c2c(F)cccc2F)c1Cl [Compound 96]	H (H shows the control value of more than 50%)	H (H shows the control value of more than 50%)	H (H shows the control value of more than 50%)	H (H shows the control value of more than 50%)	L (L shows the control value of 50% or less)
O=c1c(Br)cn(-c2ccc(F)cc2Cl)c(-c2c(F)cccc2F)c1Br [Compound 97]	H (H shows the control value of more than 50%)	H (H shows the control value of more than 50%)	L (L shows the control value of 50% or less)	H (H shows the control value of more than 50%)	L (L shows the control value of 50% or less)
O=c1c(Cl)cn(-c2ccc(F)cc2Cl)c(-c2c(F)cccc2F)c1Cl [Compound 99]	H (H shows the control value of more than 50%)	H (H shows the control value of more than 50%)	L (L shows the control value of 50% or less)	H (H shows the control value of more than 50%)	L (L shows the control value of 50% or less)
O=c1c(Br)cn(CCc2ccccc2)c(-c2c(F)cc(F)cc2F)c1Cl [Compound 100]	L (L shows the control value of 50% or less)	H (H shows the control value of more than 50%)	L (L shows the control value of 50% or less)	L (L shows the control value of 50% or less)	L (L shows the control value of 50% or less)
COc1cc(F)c(-c2c(Cl)c(=O)c(Cl)cn2CCc2ccccc2)c(F)c1 [Compound 102]	H (H shows the control value of more than 50%)	H (H shows the control value of more than 50%)	L (L shows the control value of 50% or less)	H (H shows the control value of more than 50%)	L (L shows the control value of 50% or less)
COc1cc(F)c(-c2c(Br)c(=O)c(Cl)cn2CCc2ccccc2)c(F)c1 [Compound 103]	H (H shows the control value of more than 50%)	H (H shows the control value of more than 50%)	L (L shows the control value of 50% or less)	H (H shows the control value of more than 50%)	L (L shows the control value of 50% or less)
O=c1c(Br)cn(-c2cc(F)ccc2Cl)c(-c2c(F)cccc2F)c1Cl [Compound 105]	H (H shows the control value of more than 50%)	H (H shows the control value of more than 50%)	L (L shows the control value of 50% or less)	H (H shows the control value of more than 50%)	H (H shows the control value of more than 50%)
CC(C)Cn1cc(Cl)c(=O)c(Cl)c1-c1c(F)cc(F)cc1F [Compound 107]	H (H shows the control value of more than 50%)	H (H shows the control value of more than 50%)	H (H shows the control value of more than 50%)	H (H shows the control value of more than 50%)	H (H shows the control value of more than 50%)
CC(C)Cn1cc(Cl)c(=O)c(Br)c1-c1c(F)cc(F)cc1F [Compound 108]	H (H shows the control value of more than 50%)	H (H shows the control value of more than 50%)	H (H shows the control value of more than 50%)	H (H shows the control value of more than 50%)	H (H shows the control value of more than 50%)
O=c1c(Cl)cn(-c2cc(F)ccc2Cl)c(-c2c(F)cccc2F)c1Br [Compound 109]	H (H shows the control value of more than 50%)	H (H shows the control value of more than 50%)	L (L shows the control value of 50% or less)	H (H shows the control value of more than 50%)	L (L shows the control value of 50% or less)
O=c1c(Cl)cn(-c2cc(F)ccc2Cl)c(-c2c(F)cccc2F)c1Cl [Compound 110]	H (H shows the control value of more than 50%)	H (H shows the control value of more than 50%)	L (L shows the control value of 50% or less)	H (H shows the control value of more than 50%)	H (H shows the control value of more than 50%)
Cc1ccccc1-n1cc(Br)c(=O)c(Cl)c1-c1c(F)cccc1F [Compound 111]	H (H shows the control value of more than 50%)	H (H shows the control value of more than 50%)	L (L shows the control value of 50% or less)	H (H shows the control value of more than 50%)	L (L shows the control value of 50% or less)
Cc1ccccc1-n1cc(Br)c(=O)c(Br)c1-c1c(F)cccc1F [Compound 112]	H (H shows the control value of more than 50%)	H (H shows the control value of more than 50%)	L (L shows the control value of 50% or less)	H (H shows the control value of more than 50%)	L (L shows the control value of 50% or less)
